The text below walks through data of publication PMC10917850.

Amino acid sequences for entries named in this document (tags omitted).
UniProt Q9DAJ2: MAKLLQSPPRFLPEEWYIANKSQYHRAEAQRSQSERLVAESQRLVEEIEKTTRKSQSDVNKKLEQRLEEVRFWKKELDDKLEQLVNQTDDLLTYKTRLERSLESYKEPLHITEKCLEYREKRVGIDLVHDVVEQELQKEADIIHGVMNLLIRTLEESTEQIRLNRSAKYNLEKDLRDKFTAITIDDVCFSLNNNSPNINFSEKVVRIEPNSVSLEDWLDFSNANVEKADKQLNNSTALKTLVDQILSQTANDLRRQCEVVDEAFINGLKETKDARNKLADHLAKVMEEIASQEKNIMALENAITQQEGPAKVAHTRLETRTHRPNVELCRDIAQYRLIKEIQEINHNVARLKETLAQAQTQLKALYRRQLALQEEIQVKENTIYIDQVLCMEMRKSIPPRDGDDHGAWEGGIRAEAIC

These are yes or no findings as the source states them, for the method shown. Binding seen in cells or lysates may run through a third protein. Some entries that bind do so weakly or less than the wild type.

The target in assay [1] is T1, endogenous TEKT3 (mouse (endogenous in mouse testis and sperm)) (UniProt Q6X6Z7).
T1 sequence: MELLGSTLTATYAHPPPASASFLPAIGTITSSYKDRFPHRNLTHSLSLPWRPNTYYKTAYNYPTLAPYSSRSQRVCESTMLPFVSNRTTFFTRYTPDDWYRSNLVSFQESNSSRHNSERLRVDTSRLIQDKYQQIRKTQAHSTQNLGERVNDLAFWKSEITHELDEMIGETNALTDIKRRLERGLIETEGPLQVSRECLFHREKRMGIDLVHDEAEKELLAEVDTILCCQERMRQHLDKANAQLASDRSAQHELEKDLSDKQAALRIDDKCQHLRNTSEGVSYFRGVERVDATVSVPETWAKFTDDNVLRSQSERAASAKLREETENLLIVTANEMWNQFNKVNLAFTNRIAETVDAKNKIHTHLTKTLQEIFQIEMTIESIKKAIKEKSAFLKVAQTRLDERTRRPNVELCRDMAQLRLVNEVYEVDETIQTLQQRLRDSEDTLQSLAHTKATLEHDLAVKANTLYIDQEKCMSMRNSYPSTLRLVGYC
Briefly: co-IP; endogenous proteins in adult mouse testis lysates (Pierce IP Lysis Buffer), WT and Tektip1-/- mice; precipitated with rabbit anti-TEKT1, -TEKT2, -TEKT3 or -TEKT4; rabbit IgG as negative control; Western blot. Background: In western blotting, separated proteins are transferred to a membrane and probed.

The target of assay [2] is endogenous TEKT1 (mouse (endogenous in mouse testis and sperm)) (UniProt Q9DAJ2). The description is as above.
In assay [3] the target is T2, endogenous TEKT2 (mouse (endogenous in mouse testis and sperm)) (UniProt Q922G7).
T2 sequence: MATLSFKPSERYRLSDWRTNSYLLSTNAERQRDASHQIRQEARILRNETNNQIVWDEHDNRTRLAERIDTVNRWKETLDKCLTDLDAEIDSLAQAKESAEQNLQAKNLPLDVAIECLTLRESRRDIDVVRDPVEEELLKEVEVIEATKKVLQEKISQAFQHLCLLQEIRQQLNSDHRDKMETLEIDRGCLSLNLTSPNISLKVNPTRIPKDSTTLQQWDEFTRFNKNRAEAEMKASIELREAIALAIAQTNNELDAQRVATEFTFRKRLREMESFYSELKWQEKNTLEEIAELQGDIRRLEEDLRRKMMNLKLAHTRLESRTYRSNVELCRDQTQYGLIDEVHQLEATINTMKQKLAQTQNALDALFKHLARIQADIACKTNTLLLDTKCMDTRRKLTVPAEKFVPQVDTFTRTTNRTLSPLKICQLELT
The assay is described as above.

The target in assay [4] is T3, endogenous TEKT4 (mouse (endogenous in mouse testis and sperm)) (UniProt Q149S1).
T3 sequence: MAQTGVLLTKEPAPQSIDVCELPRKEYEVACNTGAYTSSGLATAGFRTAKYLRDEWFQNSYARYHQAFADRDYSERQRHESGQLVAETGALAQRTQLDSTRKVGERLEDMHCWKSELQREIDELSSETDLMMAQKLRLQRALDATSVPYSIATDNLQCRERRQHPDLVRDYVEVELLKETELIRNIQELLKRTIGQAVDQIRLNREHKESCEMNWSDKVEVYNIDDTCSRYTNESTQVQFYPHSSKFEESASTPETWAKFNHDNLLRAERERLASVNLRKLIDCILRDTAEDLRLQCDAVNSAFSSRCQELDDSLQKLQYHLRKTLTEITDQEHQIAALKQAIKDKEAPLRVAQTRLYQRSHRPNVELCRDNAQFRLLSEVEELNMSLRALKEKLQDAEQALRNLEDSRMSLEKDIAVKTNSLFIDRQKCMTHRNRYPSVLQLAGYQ
Described as above.

Assay [5] has as its target T1, endogenous TEKT3 (mouse (endogenous in mouse testis and sperm)). Briefly: proximity ligation; Duolink in situ PLA on mouse sperm slides (WT and Tektip1-/-); mouse TEKTIP1 antiserum with rabbit anti-TEKT1, -TEKT2, -TEKT3 or -TEKT4.
The target of assay [6] is endogenous TEKT1 (mouse (endogenous in mouse testis and sperm)) (UniProt Q9DAJ2). The assay is described as above.
For assay [7], the target named is T2, endogenous TEKT2 (mouse (endogenous in mouse testis and sperm)). Described as above.
The target in assay [8] is T3, endogenous TEKT4 (mouse (endogenous in mouse testis and sperm)). The assay is described as above.

B1: endogenous TEKTIP1 (protein, UniProt A6H6Q4 1-206)
chain: MENVRREATRPSVPSGTLELYFPDHLYRNDYVSLEGPRWAPAIKQAVRWKFTPMGRDAAGQVWFTGLTNSEPGDAWYKLPRALDTPYREAHTRWHGCFQSRQRGLPPAYTQHLREMAFWDPAITAQYLNSGPRWGCMQWRDRQIRGKEFVVTRNQFGAKLPWRSDYVPLLSLPQRPRFTAQDFRQRGLQRPCPAIGQPPPAFTPAL
Regarding B1, the binding result in assay [1] was “binds”; in assay [2] it was “no binding”; in assay [3] it was “no binding”; in assay [4], “no binding”; in assay [5], “binds”; in assay [6], “no binding”. Besides, the binding entry in assay [7] and in assay [8] was “no binding” each time.

B2: endogenous TEKT3 (protein, UniProt Q6X6Z7 1-490)
chain: MELLGSTLTATYAHPPPASASFLPAIGTITSSYKDRFPHRNLTHSLSLPWRPNTYYKTAYNYPTLAPYSSRSQRVCESTMLPFVSNRTTFFTRYTPDDWYRSNLVSFQESNSSRHNSERLRVDTSRLIQDKYQQIRKTQAHSTQNLGERVNDLAFWKSEITHELDEMIGETNALTDIKRRLERGLIETEGPLQVSRECLFHREKRMGIDLVHDEAEKELLAEVDTILCCQERMRQHLDKANAQLASDRSAQHELEKDLSDKQAALRIDDKCQHLRNTSEGVSYFRGVERVDATVSVPETWAKFTDDNVLRSQSERAASAKLREETENLLIVTANEMWNQFNKVNLAFTNRIAETVDAKNKIHTHLTKTLQEIFQIEMTIESIKKAIKEKSAFLKVAQTRLDERTRRPNVELCRDMAQLRLVNEVYEVDETIQTLQQRLRDSEDTLQSLAHTKATLEHDLAVKANTLYIDQEKCMSMRNSYPSTLRLVGYC
Regarding B2, the binding result in assay [4] was “binds”.

B3: endogenous TEKT4 (protein, UniProt Q149S1 1-447)
chain: MAQTGVLLTKEPAPQSIDVCELPRKEYEVACNTGAYTSSGLATAGFRTAKYLRDEWFQNSYARYHQAFADRDYSERQRHESGQLVAETGALAQRTQLDSTRKVGERLEDMHCWKSELQREIDELSSETDLMMAQKLRLQRALDATSVPYSIATDNLQCRERRQHPDLVRDYVEVELLKETELIRNIQELLKRTIGQAVDQIRLNREHKESCEMNWSDKVEVYNIDDTCSRYTNESTQVQFYPHSSKFEESASTPETWAKFNHDNLLRAERERLASVNLRKLIDCILRDTAEDLRLQCDAVNSAFSSRCQELDDSLQKLQYHLRKTLTEITDQEHQIAALKQAIKDKEAPLRVAQTRLYQRSHRPNVELCRDNAQFRLLSEVEELNMSLRALKEKLQDAEQALRNLEDSRMSLEKDIAVKTNSLFIDRQKCMTHRNRYPSVLQLAGYQ
As for B3, the binding result in assay [1] is “binds”.

B4: endogenous TEKT2 (protein, UniProt Q922G7 1-430)
chain: MATLSFKPSERYRLSDWRTNSYLLSTNAERQRDASHQIRQEARILRNETNNQIVWDEHDNRTRLAERIDTVNRWKETLDKCLTDLDAEIDSLAQAKESAEQNLQAKNLPLDVAIECLTLRESRRDIDVVRDPVEEELLKEVEVIEATKKVLQEKISQAFQHLCLLQEIRQQLNSDHRDKMETLEIDRGCLSLNLTSPNISLKVNPTRIPKDSTTLQQWDEFTRFNKNRAEAEMKASIELREAIALAIAQTNNELDAQRVATEFTFRKRLREMESFYSELKWQEKNTLEEIAELQGDIRRLEEDLRRKMMNLKLAHTRLESRTYRSNVELCRDQTQYGLIDEVHQLEATINTMKQKLAQTQNALDALFKHLARIQADIACKTNTLLLDTKCMDTRRKLTVPAEKFVPQVDTFTRTTNRTLSPLKICQLELT
With B4, the binding result in assay [1] and in assay [4] was “binds” each time.
